{"source": "the supplement of paper PMC10338343", "note": "± gives the standard deviation. This is a selection; strong and weak results do not stand in their true shares."}
{"test_system": "MIWI (PIWIL1) piRISC loaded with piRNA #1 (30 nt)", "test": "pre-steady-state target cleavage rate (min^-1); MIWI and MILI are mouse PIWI proteins and EfPiwi is from a freshwater sponge; tags in brackets are library labels; higher = faster piRNA-guided slicing of the target", "settings": "guide: piRNA #1 5'p-UGAGGUAGUAGGUUGUAUAGUAUCCAGAGG; auxiliary factor: 500 nM mouse GTSF1", "outline": "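Active affinity-purified piRISC (1 nM) loaded with one synthetic guide was mixed with a transcribed, DNA-blocked target RNA library (0.1 nM), with or without 500 nM GTSF1 partner protein, in HEPES–potassium acetate buffer at 33 °C for 0–8 or 0–960 min. Uncleaved targets were sequenced, normalised to depth and to weakly complementary targets, and pooled across three trials, with k3 capped at 0.0001 min^-1. The pre-steady-state cleavage rate was determined with a burst-and-steady-state fit.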"}
{"sequence": "GGAGACGAUAGUAUACAAGCUACUACCUCA", "pre-steady-state target cleavage rate": "0.577 ± 0.04"}
{"sequence": "GGAGACCUAAGUAUACAACCUUCUACCUCA", "pre-steady-state target cleavage rate": "0.0158 ± 0.0037"}
{"sequence": "GGAGACGAUACUAUACAACCAACUACCACA", "pre-steady-state target cleavage rate": "0.147 ± 0.013"}
{"sequence": "GGAGACCUAUGAUUACAACCUACUCCUCA", "pre-steady-state target cleavage rate": "< 0.0001"}
{"sequence": "GGAGACGAUACUAUACAACCUACAUCCUCA", "pre-steady-state target cleavage rate": "0.342 ± 0.029"}
{"sequence": "GCUCUGGAUACUAUACAACCAACAACCUCA", "pre-steady-state target cleavage rate": "0.0818 ± 0.013"}
{"sequence": "GCUCUGGAUACUAUACAACCUACUACUUCA", "pre-steady-state target cleavage rate": "2.26 ± 0.14"}
{"sequence": "GGAGACCUAUGAUAUGUACCUACGUACCUCA", "pre-steady-state target cleavage rate": "< 0.0001"}
{"sequence": "GGUCUGGAUACUAUACAACGUACUACCUCA", "pre-steady-state target cleavage rate": "1.07 ± 0.062"}
{"sequence": "GGAGACCUAUGUAUACAAACUACUACCUCA", "pre-steady-state target cleavage rate": "0.0797 ± 0.0098"}
{"sequence": "GGAGACCUAUGAAUACAACACUACUACCUCA", "pre-steady-state target cleavage rate": "< 0.0001"}
{"sequence": "GCUCUGGAUACUAUUCAACCUAGUACCUCA", "pre-steady-state target cleavage rate": "0.363 ± 0.051"}
{"sequence": "GGUGUCGAUACUAUACAACCUACUACCUCA", "pre-steady-state target cleavage rate": "1.64 ± 0.1"}
{"sequence": "GGAGACCUAUGAUAUGUUGGUACUAACCUCA", "pre-steady-state target cleavage rate": "< 0.0001"}
{"sequence": "GGAGACCUUACUAACAACCUACUACCUCA", "pre-steady-state target cleavage rate": "0.189 ± 0.025"}
{"sequence": "CCACUGGAUACUAUACAACGUACUACCUCA", "pre-steady-state target cleavage rate": "0.98 ± 0.044"}
{"sequence": "GGAGACCUAUCUAUAGAACCAACUACCUCA", "pre-steady-state target cleavage rate": "0.00622 ± 0.0013"}
{"sequence": "CCUCUGCAUACUAUACUACCUACUACCUCA", "pre-steady-state target cleavage rate": "1.69 ± 0.11"}
{"sequence": "GGAGACCAUACUAUACAACCUACUACCUCCA", "pre-steady-state target cleavage rate": "1.14 ± 0.065"}
{"sequence": "GGAGACCUAACUAUACAACCUUCUACGUCA", "pre-steady-state target cleavage rate": "0.108 ± 0.023"}
{"sequence": "CCUCUGGAUACUAUACAUCCUACAACCUCA", "pre-steady-state target cleavage rate": "1.35 ± 0.11"}
{"sequence": "GCUCUGGAUACGUAUACAACCUACUACCUCA", "pre-steady-state target cleavage rate": "1.46 ± 0.085"}
{"sequence": "GGAGACCUAUGAUAUGUUCCUAUUACCUCA", "pre-steady-state target cleavage rate": "< 0.0001"}
{"sequence": "GGAGACGAUUCUAUACAACCAACUACCUCA", "pre-steady-state target cleavage rate": "0.126 ± 0.014"}
{"sequence": "GGAGACGAUACUAUACAAGCUAGUACCUCA", "pre-steady-state target cleavage rate": "0.368 ± 0.044"}
{"sequence": "GGAGACCUAUGAUAAGAACCUUCUACCUCA", "pre-steady-state target cleavage rate": "< 0.0001"}
{"sequence": "GGAGUGGAUACUAAUCAACCUACUACCUCA", "pre-steady-state target cleavage rate": "1.2 ± 0.11"}
{"sequence": "GGAGACCUUAGUAUACAACCUAGUACCUCA", "pre-steady-state target cleavage rate": "0.16 ± 0.022"}
{"sequence": "GGUCUGGAUACUAAACAACCUACUACCUGA", "pre-steady-state target cleavage rate": "0.742 ± 0.13"}
{"sequence": "GGACUCGAUACUAUACAACCUACUACCACA", "pre-steady-state target cleavage rate": "0.579 ± 0.063"}
{"sequence": "GGAGACCUUAACUAUACAACCUACUACCUCA", "pre-steady-state target cleavage rate": "1.21 ± 0.099"}
{"sequence": "GCUCUGGAUACUAAAGAACCUACUACCUCA", "pre-steady-state target cleavage rate": "1.17 ± 0.087"}
{"sequence": "GGAGAGGAUACUAUACAACCUACUACCUCA [g2:g25:cont:t1A]", "pre-steady-state target cleavage rate": "1.44 ± 0.072"}
{"sequence": "GCUCUGGAUACUAUAUCAACCUACUACCUCA", "pre-steady-state target cleavage rate": "0.868 ± 0.1"}
{"sequence": "GGAGACCAAACUAUACAACCUACUUCCUCA", "pre-steady-state target cleavage rate": "0.256 ± 0.05"}
{"sequence": "GGAGACCUUACUAUAGAAGCUACUACCUCA", "pre-steady-state target cleavage rate": "0.354 ± 0.032"}
{"sequence": "GGAGUCCAUACUAUACAACCUACUACCUCA", "pre-steady-state target cleavage rate": "1.63 ± 0.091"}
{"sequence": "GGAGACCAUAGUAUAGAACCUACUACCUCA", "pre-steady-state target cleavage rate": "0.506 ± 0.057"}
{"sequence": "GGACUGGAUACUAUACUACCUACUACCUCA", "pre-steady-state target cleavage rate": "1.44 ± 0.12"}
{"sequence": "GGAGAGGAUACUAUACAACCUACUACCUCU [g2:g25:cont:t1U]", "pre-steady-state target cleavage rate": "0.897 ± 0.05"}
